The values below come from the supplement of paper PMC11316812.

± gives the standard deviation of the averaged measurements.

One series relates to MCF7. The series is described as follows: percentage of EdU-negative (G0-arrested) nuclei per well, 72 h; higher = more G0 arrest. Particulars: reference: sequence is the full UniProt precursor, the tested protein was the secreted form or ectodomain.
The subject of a further series is hTERT-HMEC. Described as above. Conditions: reference: sequence is the full UniProt precursor, the tested protein was the secreted form or ectodomain.
[1] abbreviates: protein concentration 0.0225 µM.
Setting [2] is: protein concentration 0.00685714 µM.
Setting [3] is: protein concentration 0.0685714 µM.
The mark [4] stands for this setting: protein concentration 0.01875 µM.
Setting [5] is: protein concentration 0.1875 µM.
Setting [6] is: protein concentration 0.0297143 µM.
The mark [7] stands for this setting: protein concentration 0.297143 µM.
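Further: secreted proteins added to cultured cells, EdU pulse at the end, nuclei found by Hoechst imaging, EdU status from nuclear versus surrounding ring intensity ratio, PBS as neutral control.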

For the sequence “MAGPRACAPLLLLLLLGELLAAAGAQRVGLPGPPGPPGPPGKPGQDGIDGEAGPPGLPGPPGPKGAPGKPGKPGEAGLPGLPGVDGLTGRDGPPGPKGAPGERGSLGPPGPPGLGGKGLPGPPGEAGVSGPPGGIGLRGPPGPSGLPGLPGPPGPPGPPGHPGVLPEGATDLQCPSICPPGPPGPPGMPGFKGPTGYKGEQGEVGKDGEKGDPGPPGPAGLPGSVGLQGPRGLRGLPGPLGPPGDRGPIGFRGPPGIPGAPGKAGDRGERGPEGFRGPKGDLGRPGPKGTPGVAGPSGEPGMPGKDGQNGVPGLDGQKGEAGRNGAPGEKGPNGLPGLPGRAGSKGEKGERGRAGELGEAGPSGEPGVPGDAGMPGERGEAGHRGSAGALGPQGPPGAPGVRGFQGQKGSMGDPGLPGPQGLRGDVGDRGPGGAAGPKGDQGIAGSDGLPGDKGELGPSGLVGPKGESGSRGELGPKGTQGPNGTSGVQGVPGPPGPLGLQGVPGVPGITGKPGVPGKEASEQRIRELCGGMISEQIAQLAAHLRKPLAPGSIGRPGPAGPPGPPGPPGSIGHPGARGPPGYRGPTGELGDPGPRGNQGDRGDKGAAGAGLDGPEGDQGPQGPQGVPGTSKDGQDGAPGEPGPPGDPGLPGAIGAQGTPGICDTSACQGAVLGGVGEKSGSRSS”, the “percentage of EdU-negative” value was 25 ± 1.2% in the series with MCF7 (setting [1]), 25.36 ± 0.048% in the series with MCF7 (protein concentration 0.225 µM), 4.85 ± 0.34% with hTERT-HMEC (setting [1]) and 5.07 ± 0.74% in the series on hTERT-HMEC (protein concentration 0.225 µM).

Take “MAHYITFLCMVLVLLLQNSVLAEDGEVRSSCRTAPTDLVFILDGSYSVGPENFEIVKKWLVNITKNFDIGPKFIQVGVVQYSDYPVLEIPLGSYDSGEHLTAAVESILYLGGNTKTGKAIQFALDYLFAKSSRFLTKIAVVLTDGKSQDDVKDAAQAARDSKITLFAIGVGSETEDAELRAIANKPSSTYVFYVEDYIAISKIREVMKQKLCEESVCPTRIPVAARDERGFDILLGLDVNKKVKKRIQLSPKKIKGYEVTSKVDLSELTSNVFPEGLPPSYVFVSTQRFKVKKIWDLWRILTIDGRPQIAVTLNGVDKILLFTTTSVINGSQVVTFANPQVKTLFDEGWHQIRLLVTEQDVTLYIDDQQIENKPLHPVLGILINGQTQIGKYSGKEETVQFDVQKLRIYCDPEQNNRETACEIPGFNGECLNGPSDVGSTPAPCICPPGKPGLQGPKGDPGLPGNPGYPGQPGQDGKPGYQGIAGTPGVPGSPGIQGARGLPGYKGEPGRDGDKGDRGLPGFPGLHGMPGSKGEMGAKGDKGSPGFYGKKGAKGEKGNAGFPGLPGPAGEPGRHGKDGLMGSPGFKGEAGSPGAPGQDGTRGEPGIPGFPGNRGLMGQKGEIGPPGQQGKKGAPGMPGLMGSNGSPGQPGTPGSKGSKGEPGIQGMPGASGLKGEPGATGSPGEPGYMGLPGIQGKKGDKGNQGEKGIQGQKGENGRQGIPGQQGIQGHHGAKGERGEKGEPGVRGAIGSKGESGVDGLMGPAGPKGQPGDPGPQGPPGLDGKPGREFSEQFIRQVCTDVIRAQLPVLLQSGRIRNCDHCLSQHGSPGIPGPPGPIGPEGPRGLPGLPGRDGVPGLVGVPGRPGVRGLKGLPGRNGEKGSQGFGYPGEQGPPGPPGPEGPPGISKEGPPGDPGLPGKDGDHGKPGIQGQPGPPGICDPSLCFSVIARRDPFRKGPNY [Q96P44]”: the “percentage of EdU-negative” value came out at 22.4 ± 0.71% in the series with MCF7 (setting [2]), 26.57 ± 0.11% in the series on MCF7 (setting [3]), 5.32 ± 0.33% with hTERT-HMEC (setting [2]) and 5.995 ± 0.026% in the series on hTERT-HMEC (setting [3]).

Turning to “MAPWSHPSAQLQPVGGDAVSPALMVLLCLGLSLGPRTHVQAGNLSKATLWAEPGSVISRGNSVTIRCQGTLEAQEYRLVKEGSPEPWDTQNPLEPKNKARFSIPSMTEHHAGRYRCYYYSPAGWSEPSDPLELVVTGFYNKPTLSALPSPVVTSGENVTLQCGSRLRFDRFILTEEGDHKLSWTLDSQLTPSGQFQALFPVGPVTPSHRWMLRCYGSRRHILQVWSEPSDLLEIPVSGAADNLSPSQNKSDSGTASHLQDYAVENLIRMGMAGLILVVLGILIFQDWHSQRSPQAAAGR [A6NI73]”, the “percentage of EdU-negative” value in the series with MCF7 (setting [4]) was determined as 24 ± 1.6%; in the series on MCF7 (setting [5]), 26.1 ± 2.9%; with hTERT-HMEC (setting [4]), 6.2 ± 0.49%; in the series on hTERT-HMEC (setting [5]), 11.2 ± 0.64%.

For the sequence “MAQKGVLGPGQLGAVAILLYLGLLRSGTGAEGAEAPCGVAPQARITGGSSAVAGQWPWQVSITYEGVHVCGGSLVSEQWVLSAAHCFPSEHHKEAYEVKLGAHQLDSYSEDAKVSTLKDIIPHPSYLQEGSQGDIALLQLSRPITFSRYIRPICLPAANASFPNGLHCTVTGWGHVAPSVSLLTPKPLQQLEVPLISRETCNCLYNIDAKPEEPHFVQEDMVCAGYVEGGKDACQGDSGGPLSCPVEGLWYLTGIVSWGDACGARNRPGVYTLASSYASWIQSKVTELQPRVVPQTQESQPDSNLCGSHLAFSSAPAQGLLRPILFLPLGLALGLLSPWLSEH”, the “percentage of EdU-negative” value in the series with MCF7 (setting [1]) turned out to be 24.4 ± 1.8%; in the series with MCF7 (protein concentration 0.225 µM) it was 24.6 ± 0.59%; with hTERT-HMEC (setting [1]), 7.44 ± 0.097%; in the series on hTERT-HMEC (protein concentration 0.225 µM), 30.3 ± 4.4%.

As for “MARLLWLLRGLTLGTAPRRAVRGQAGGGGPGTGPGLGEAGSLATCELPLAKSEWQKKLTPEQFYVTREKGTEPPFSGIYLNNKEAGMYHCVCCDSPLFSSEKKYCSGTGWPSFSEAHGTSGSDESHTGILRRLDTSLGSARTEVVCKQCEAHLGHVFPDGPGPNGQRFCINSVALKFKPRKH [Q9Y3D2]”, the “percentage of EdU-negative” value worked out at 25.2 ± 0.89% with MCF7 (setting [1]), 25.89 ± 0.18% in the series on MCF7 (protein concentration 0.225 µM), 4.73 ± 0.076% with hTERT-HMEC (setting [1]) and 4.8466 ± 0.0027% in the series on hTERT-HMEC (protein concentration 0.225 µM).

On to “MDNQGVIYSDLNLPPNPKRQQRKPKGNKNSILATEQEITYAELNLQKASQDFQGNDKTYHCKDLPSAPEKLIVGILGIICLILMASVVTIVVIPSTLIQRHNNSSLNTRTQKARHCGHCPEEWITYSNSCYYIGKERRTWEESLLACTSKNSSLLSIDNEEEMKFLSIISPSSWIGVFRNSSHHPWVTMNGLAFKHEIKDSDNAELNCAVLQVNRLKSAQCGSSIIYHCKHKL”, for which the “percentage of EdU-negative” value in the series with MCF7 (setting [1]) was found to be 23.5 ± 1.5%; with MCF7 (protein concentration 0.225 µM), 25.6 ± 1.6%; in the series on hTERT-HMEC (setting [1]), 5.08 ± 0.35%; with hTERT-HMEC (protein concentration 0.225 µM) it was 4.9 ± 0.15%.

For the sequence “MKDDFAEEEEVQSFGYKRFGIQEGTQCTKCKNNWALKFSIILLYILCALLTITVAILGYKVVEKMDNVTGGMETSRQTYDDKLTAVESDLKKLGDQTGKKAISTNSELSTFRSDILDLRQQLREITEKTSKNKDTLEKLQASGDALVDRQSQLKETLENNSFLITTVNKTLQAYNGYVTNLQQDTSVLQGNLQNQMYSHNVVIMNLNNLNLTQVQQRNLITNLQRSVDDTSQAIQRIKNDFQNLQQVFLQAKKDTDWLKEKVQSLQTLAANNSALAKANNDTLEDMNSQLNSFTGQMENITTISQANEQNLKDLQDLHKDAENRTAIKFNQLEERFQLFETDIVNIISNISYTAHHLRTLTSNLNEVRTTCTDTLTKHTDDLTSLNNTLANIRLDSVSLRMQQDLMRSRLDTEVANLSVIMEEMKLVDSKHGQLIKNFTILQGPPGPRGPRGDRGSQGPPGPTGNKGQKGEKGEPGPPGPAGERGPIGPAGPPGERGGKGSKGSQGPKGSRGSPGKPGPQGSSGDPGPPGPPGKEGLPGPQGPPGFQGLQGTVGEPGVPGPRGLPGLPGVPGMPGPKGPPGPPGPSGAVVPLALQNEPTPAPEDNGCPPHWKNFTDKCYYFSVEKEIFEDAKLFCEDKSSHLVFINTREEQQWIKKQMVGRESHWIGLTDSERENEWKWLDGTSPDYKNWKAGQPDNWGHGHGPGEDCAGLIYAGQWNDFQCEDVNNFICEKDRETVLSSAL [Q5KU26]”, the “percentage of EdU-negative” value was 24.6 ± 1.5% with MCF7 (protein concentration 0.014 µM), 30.5 ± 2.3% in the series with MCF7 (protein concentration 0.14 µM), 4.89 ± 0.26% in the series on hTERT-HMEC (protein concentration 0.014 µM) and 5.83 ± 0.4% in the series with hTERT-HMEC (protein concentration 0.14 µM).

Consider “MKLLVLAVLLTVAAADSGISPRAVWQFRKMIKCVIPGSDPFLEYNNYGCYCGLGGSGTPVDELDKCCQTHDNCYDQAKKLDSCKFLLDNPYTHTYSYSCSGSAITCSSKNKECEAFICNCDRNAAICFSKAPYNKAHKNLDTKKYCQS”, for which the “percentage of EdU-negative” value in the series on MCF7 (setting [1]) came out at 26 ± 0.9%; with MCF7 (protein concentration 0.225 µM), 25.4 ± 4.6%; in the series on hTERT-HMEC (setting [1]) it was 5.18 ± 0.11%; in the series on hTERT-HMEC (protein concentration 0.225 µM) it was 7.86 ± 2.2%.

In the case of “MKPLLLAVSLGLIAALQAHHLLASDEEIQDVSGTWYLKAMTVDREFPEMNLESVTPMTLTTLEGGNLEAKVTMLISGRCQEVKAVLEKTDEPGKYTADGGKHVAYIIRSHVKDHYIFYCEGELHGKPVRGVKLVGRDPKNNLEALEDFEKAAGARGLSTESILIPRQSETCSPGSD”, the “percentage of EdU-negative” value was determined as 23.1 ± 0.54% in the series on MCF7 (setting [6]), 25.8 ± 1.7% in the series on MCF7 (setting [7]), 4.86 ± 0.068% in the series on hTERT-HMEC (setting [6]) and 9.01 ± 0.57% with hTERT-HMEC (setting [7]).

Consider “MKTCWKIPVFFFVCSFLEPWASAAVKRRPRFPVNSNSNGGNELCPKIRIGQDDLPGFDLISQFQVDKAASRRAIQRVVGSATLQVAYKLGNNVDFRIPTRNLYPSGLPEEYSFLTTFRMTGSTLKKNWNIWQIQDSSGKEQVGIKINGQTQSVVFSYKGLDGSLQTAAFSNLSSLFDSQWHKIMIGVERSSATLFVDCNRIESLPIKPRGPIDIDGFAVLGKLADNPQVSVPFELQWMLIHCDPLRPRRETCHELPARITPSQTTDERGPPGEQGPPGPPGPPGVPGIDGIDGDRGPKGPPGPPGPAGEPGKPGAPGKPGTPGADGLTGPDGSPGSIGSKGQKGEPGVPGSRGFPGRGIPGPPGPPGTAGLPGELGRVGPVGDPGRRGPPGPPGPPGPRGTIGFHDGDPLCPNACPPGRSGYPGLPGMRGHKGAKGEIGEPGRQGHKGEEGDQGELGEVGAQGPPGAQGLRGITGIVGDKGEKGARGLDGEPGPQGLPGAPGDQGQRGPPGEAGPKGDRGAEGARGIPGLPGPKGDTGLPGVDGRDGIPGMPGTKGEPGKPGPPGDAGLQGLPGVPGIPGAKGVAGEKGSTGAPGKPGQMGNSGKPGQQGPPGEVGPRGPQGLPGSRGELGPVGSPGLPGKLGSLGSPGLPGLPGPPGLPGMKGDRGVVGEPGPKGEQGASGEEGEAGERGELGDIGLPGPKGSAGNPGEPGLRGPEGSRGLPGVEGPRGPPGPRGVQGEQGATGLPGVQGPPGRAPTDQHIKQVCMRVIQEHFAEMAASLKRPDSGATGLPGRPGPPGPPGPPGENGFPGQMGIRGLPGIKGPPGALGLRGPKGDLGEKGERGPPGRGPNGLPGAIGLPGDPGPASYGRNGRDGERGPPGVAGIPGVPGPPGPPGLPGFCEPASCTMQAGQRAFNKGPDP”, for which the “percentage of EdU-negative” value came to 27.4 ± 0.72% with MCF7 (protein concentration 0.014 µM), 28.1 ± 2.1% in the series on MCF7 (protein concentration 0.14 µM), 4.72 ± 0.95% in the series on hTERT-HMEC (protein concentration 0.014 µM) and 6.48 ± 1.2% in the series on hTERT-HMEC (protein concentration 0.14 µM).
